Laboratory results: PubChem BioAssay AID1794842 (National Center for Advancing Translational Sciences (NCATS), 2023)
The campaign covered roughly 2,800 compounds. Fewer than 10 were called active. Calls come from the whole dose curve; as a rule, active = well fitted curve in the direction sought with a large enough effect; inconclusive = small, poorly fitted or top-dose-only effect, or another doubt; inactive = no such curve, though single readings can be large or run the other way. Some of the results follow.

What follows are compounds tested against Metallo-beta-lactamase type 2 (Klebsiella pneumoniae) (UniProt C7C422) (assay: qHTS to identify inhibitors of the New Delhi Metallo-beta-lactamase (NDM): Meropenem screen against the machine-based learning selections.). Conditions: Purified NDM-1, meropenem hydrolysis, absorbance 300 nm; at 38.4 µM (top of the series) unless noted.
Excerpt: Assay Submitter (PI): James Inglese Ph.D., Patricia Dranchak Ph.D., Mahesh Aitha Ph.D. Assay Development and Screening Technology Laboratory (ADST) National Center for Advancing Translational Sciences (NCATS), Rockville, MD National Institute of Health (NIH), Bethesda, Maryland The metallo-beta-lactamases (MBL) are a main antibiotic resistance mechanism evolved by bacteria. There is an urgent clinical need for MBL inhibitors to mitigate this growing threat. To support a machine-based learning study, qHTS has been used to experimentally test inhibitors identified by prediction tools.
PROTOCOL TABLE (as described by Inglese et al., 2007) SEQUENCE No. (e.g., 1, 2, 3, etc.); […] (e.g., enzyme, Incubation, Reagent, etc.); VALUE; DESCRIPTION Primary Screen 1; NDM-1; 4 uL of 3 nM enzyme [2 nM final] in 50 mM HEPES (pH 7.0), 1 uM […], 0.01% Tween20; Use BioRaptr to dispense into two sets of Aurora black, clear bottom high base 1536-well plates 2; Compounds; 23 nL; Use Pin Tool (Wako) to transfer DMSO control and library compounds in DMSO 3; Incubate; >30 min 4a; Reagent; 2 uL of 50 uM nitrocefin [16.7 uM final] to one set of assay plates 4b; Reagent; 2 uL of 150 uM meropenem [50 uM final] to second set of assay plates 5a; Incubate; 15 min 5b; Incubate; 30 min 6a; Detector; Absorbance at 485 nm (bandwidth = 5 nm, 25 flashes/well) on Tecan Infinity 6b; Detector; Absorbance at 300 nm (bandwidth = 5 nm, 25 flashes/well) on Tecan Infinity NOTES (numbers refer to sequence above) 1; Column 1 of each plate received assay buffer without enzyme and columns 2-48 received enzyme for a final assay concentration of 2 nM. 2; Control plate contained DMSO in columns 1, 2, 3, and 4. 3; Compound interaction with enzyme. 4; Nitrocefin and meropenem substrates were prepared in the same assay buffer as step 1 for a final assay concentration of 16.7 uM and 50 uM, respectively, and added to all wells across respective sets of assay plates. 5; Default reader settings were applied for absorbance read at 485 nm (nitrocefin) or 300 nm (meropenem), bandwidth = 5 nm, 25 flashes/well. References: Inglese J, Shamu CE, Guy RK. 2007. Reporting data from high-throughput screening of small-molecule libraries. Nat Chem Biol. doi:10.1038/nchembio0807-438 Yasgar A, Shinn P, Jadhav A, Auld D, Michael S, Zheng W, Austin CP, Inglese J, Simeonov A. 2008. Compound Management for Quantitative High-Throughput Screening. J Lab Autom 13:79 - 89. doi:10.1016/j.jala.2007.12.004
Note: % of control where 0% means no effect.

Chain of UniProt C7C422 (C7C422 whole entry, looked up): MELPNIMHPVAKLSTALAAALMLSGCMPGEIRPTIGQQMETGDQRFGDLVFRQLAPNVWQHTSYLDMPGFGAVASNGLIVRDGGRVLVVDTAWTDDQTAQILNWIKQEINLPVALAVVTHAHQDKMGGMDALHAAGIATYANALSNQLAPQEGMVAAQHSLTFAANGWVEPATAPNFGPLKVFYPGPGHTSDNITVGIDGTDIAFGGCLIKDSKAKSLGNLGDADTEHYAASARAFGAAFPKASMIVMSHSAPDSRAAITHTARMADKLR

Activity change, negative = inhibition, inactive:
NC(=O)NCCN1CCCC(N2CCN(c3cccc(C(F)(F)F)c3)CC2)C1 (stereo not given) 44.2%, NC(=O)Cc1c[nH]c2ncc(-c3cccc(O)c3)cc12 11.3% [at 76.7 µM], COc1ccc(CN2C(=O)[C@@H]3C[C@@H](CN3C3CCN(C)CC3)Oc3ccccc32)cc1 0.857% [at 57.5 µM], C[C@@H](O)[C@H](N)C(=O)NCc1nc(-c2cccc(F)c2)c(-c2ccccn2)[nH]1 31.9%, COCC(=O)N[C@@H]1CCC[C@@H](C(=O)NCc2cc(F)cc(F)c2)CC(=O)N(C)C1 0.273% [at 57.5 µM], COc1ccc(CN2CCNc3cnc(Nc4ccccc4)cc3C2)cc1O 9.11% [at 57.5 µM], CC1(C(=O)NCCOc2ccccc2)CCCc2cnc(Nc3cccnc3)nc21 (stereo not given) -0.829% [at 57.5 µM], O=C1CCCCC(CNC(=O)c2ccccc2)N1 (stereo not given) -3.43%, CC(c1ccc(-c2ccc(N(C)C)nn2)cc1)N(C)C (stereo not given) 17.4%, OCc1cccc(-c2cc3c(cn2)CN(Cc2ccccc2)CCN3)c1 -2.42% [at 57.5 µM], CN(C)CC(NC1CCC2(CCNCC2)CC1)c1ccccc1 (stereo not given) 10.6%, COC[C@H]1C[C@@H](NC(=O)Nc2cccnc2)[C@H](O)[C@@H]1O 38.1% [at 76.7 µM], COc1ccc(-c2cc(N3CCCN(C(=O)c4ccc(C)s4)CC3)n[nH]2)cc1 -2.79%, O=C(Nc1ccccc1CCc1ccccn1)C1CCN(c2cnn(Cc3ccccc3)c(=O)c2)C1 (stereo not given) 2.68%, NS(=O)(=O)c1ccc(C(=O)N[C@H](c2cccs2)C2CC(O)C2)cc1 (stereo not given in full) -0.552%, CNC(=O)[C@@H](c1ccccc1OC)N1CCC[C@H]1C(=O)N(C)CCN(C)C 49.5% [at 57.5 µM], O=C(O)CCCC(=O)N1CCN2C(=O)c3cc(-c4ccco4)ccc3NC(=O)[C@@H]2C1 15.5% [at 57.5 µM], CCCC(C)N1CC2(CCN(C(=O)c3cnn4ccccc34)CC2)OC1=O (stereo not given) 0.945%, O=C(NCCc1noc(C(F)(F)F)n1)[C@H]1CCC[C@H](O)C1 -2.79%, Cc1ccc(S(=O)(=O)Cc2noc([C@@H]3C[C@@H](O)CN3C(C)C)n2)cc1 1.26% [at 57.5 µM], CCCn1ccc2sc(C)c(C(=O)NCc3cc(F)ccc3F)c2c1=O -1.34%, CC(C)N1CCC(O)(c2csc(CN3CCN(C)CC3)n2)CC1 -2.37% [at 57.5 µM], Cc1csc(NC(=O)c2nc(C(O)c3cccc(O)c3)oc2C)n1 (stereo not given) 65.5% [at 57.5 µM], Cn1c(CO[C@H]2CN(C(=O)c3cccnc3)C[C@H]2F)nc2ccccc21 0.954% [at 57.5 µM], Oc1ccccc1CN1CCNc2cnc(Oc3ccccc3)cc2C1 7.83% [at 57.5 µM], Cc1cccc2nc(CNC(=O)c3cccc(C4CCNC4)c3)cn12 (stereo not given) 38%, CCOc1ccccc1-n1c(Cc2ccc(O)cc2)n[nH]c1=O 0.327%, COc1ccc(-c2cnc([C@@H]3COCCN3Cc3cn(C)c4ccccc34)[nH]2)cc1 -1.61% [at 57.5 µM], COc1ccccc1-c1noc(CCC(=O)N2CCC(Cc3noc(C)n3)CC2)n1 -4.18%, O=C(c1ccccc1)N1CCC(NCCN2CCCCC2CO)CC1 (stereo not given) 3.23%, C#CCN(C)CC[C@@H]1CC[C@H](O)[C@@H](C(=O)N(C)Cc2ccccc2)O1 -1.25% [at 57.5 µM], Cc1ncnc(N2CCC(Oc3ccc4ccccc4c3)(C(=O)O)CC2)c1C 3.39%, O=C(O)CCCC(=O)N1C[C@@H](C(=O)O)[C@H](c2ccc3c(c2)OCO3)C1 1.3%, COC(=O)CNC(=O)C1CCN(C(=O)C2CN(c3cccc(OC)c3)C(=O)N2)C1 (stereo not given) -0.602%, COC(=O)[C@H]1CN(C(=O)c2cccnc2)CCN1C(=O)C1CCCCC1 -3.86% [at 57.5 µM], CC1(C(=O)NCc2cccnc2)CCCc2cnc(NCc3ccccc3)nc21 (stereo not given) 1.94% [at 57.5 µM], Fc1ccccc1CNC1(Cc2cc(-c3ccccn3)on2)COC1 4.18% [at 57.5 µM], Cc1noc([C@@H](C)NCc2cccc(Cl)c2)c1C(=O)O 66.5% [at 57.5 µM], O=C(CCc1c[nH]c2ccccc12)N1CCC(Oc2ncccc2C(=O)N2CCCCC2)C1 (stereo not given) 0.926%, O=C(Nc1ccccc1)N[C@H]1[C@H](O)[C@@H](N2CCN(c3ccccc3)CC2)[C@@H]2OC[C@H]1O2 6.33% [at 57.5 µM], CCN(CC)Cc1cnc2c(C(=O)Nc3ccc(OC)c(OC)c3)cnn2c1 1.11%, C#CCN(C)Cc1nc(C2(O)CCN(CC3CCCCC3)CC2)cs1 0.103% [at 57.5 µM], c1cncc(-c2ccnc(NCCCN3CCCc4ccccc43)n2)c1 3.43%, CS(=O)(=O)N1C[C@@H]2OCC(=O)N(Cc3cccnc3)[C@@H]2C1 -0.366% [at 57.5 µM], OC1CC([C@H](NC2CSCCSC2)c2ccc3c(c2)CCO3)C1 (stereo not given in full) -1.24%, COC(=O)c1ccccc1NC(=O)Cn1cccc1-c1nc(-c2ccccc2)no1 3.57%, CNC(=O)[C@@H](c1ccccc1F)N1CCC[C@H]1C(=O)NCc1cccnc1 50.6%, OC1(CNCCc2nc(-c3cccnc3)n[nH]2)CNCCOC1 (stereo not given) 14%, COc1ccc(-c2ccnc(N[C@H]3CO[C@H]4[C@@H]3OC[C@@H]4NC(=O)c3ccc(C)cc3)n2)cc1 6.48%, COc1ccc(Cl)cc1-c1ccc2c(c1)C(=O)N1CC[C@H](N)C[C@H]1C(=O)N2 12.7% [at 57.5 µM], Cc1nc(CN2CCN(C(C(=O)O)c3cc4ccccc4o3)CC2)cs1 (stereo not given) 17%, CN1C(=O)C(c2ccccc2)CC12CCN(C(=O)c1cccc(F)c1)CC2 (stereo not given) 0.0609%, COC(=O)NCC(=O)N1CC[C@@H]2[C@@H](CCC(=O)N2CCc2ccccc2)C1 3.07%, O=C(NCC1(O)CCCCC1)c1ccc2nc(Cc3ccccc3F)oc2c1 3.26%, COC[C@@H]1CN(C(=O)Cc2ccc(OC)cc2)C[C@H]1c1nc(C)no1 -1.7%, O=C(CC[C@@H]1CNC(=O)[C@@H]2C[C@H](NCc3ccc(F)cc3)CN12)NCc1ccccc1 0.0454% [at 57.5 µM], Cc1cnc(C(=O)N2CCC(N3C(=O)C4(CCCC4)C3c3ccccc3)CC2)cn1 (stereo not given) 2.61%, CN1[C@@H](CCC(=O)N2CCN(c3ccccc3)CC2)CNC(=O)[C@@H]2[C@H]1CCN2Cc1ccccc1 -4.61%, Cc1ccsc1-c1[nH]nc2ncc(-c3cn[nH]c3)nc12 3.03% [at 76.7 µM], NC(=O)CN1CCC(C(=O)NCc2cc(-c3ccc(Cl)cc3)on2)CC1 24.4%, COc1cc(SC)ccc1C(=O)N[C@H]1CCN2C(=O)[C@@H](CC(C)C)NC(=O)[C@@H]2C1 6.21% [at 57.5 µM], O=C(c1ccccc1-n1cncn1)N1CCC(N2CCCC2=O)CC1 -1.22%, Cn1cccc1C(=O)NC[C@H]1O[C@@H](CO)[C@@H](O)C1N1CCN(c2ccccc2)CC1 (stereo not given in full) 41.9%, O=C(O)c1ccc(CN2CCC[C@H]2c2nc(-c3ccc(F)cn3)no2)cc1 23.6% [at 57.5 µM], COCCCNC(=O)N1CCc2nn(CC3CC3)c(=O)n2CC1 -0.768%, Cc1nc2ccc(CNC(=O)c3cccc(CCC(C)(C)O)c3)cc2[nH]1 -0.105%, CCS(=O)(=O)NCc1nc(-c2ccc(C)cc2)c(-c2ccccn2)[nH]1 34.9%, O=C(N[C@@H](CO)c1ccccc1)c1cc(COc2cccc(F)c2)[nH]n1 0.514%, COc1cccc(-c2cc(C(=O)O)cc(S(=O)(=O)NC(C)C)c2)c1 7.08%, Cc1ccsc1-c1[nH]nc2ncc(-c3ccccc3O)nc12 1.84% [at 57.5 µM], O=C(NCc1ccc(C(F)(F)F)cc1)[C@@H]1Cc2nc[nH]c2CN1Cc1ccccn1 51.4% [at 57.5 µM], CCn1cc(C(=O)N2CCCC(CCc3cccc(F)c3)C2)cn1 (stereo not given) -0.315%, Cc1ccc(N2CCN(C(=O)C3CCCN(c4cnn(Cc5ccccc5)c(=O)c4)C3)CC2)cc1 (stereo not given) -0.731%, CC[C@H]1CN(Cc2ccc(OC)cc2O)CC[C@H]1CC(=O)N(C)CC#N 0.987% [at 57.5 µM], CNCCN1C(=O)CC[C@H]2CN(C(=O)c3ccc(Cl)cn3)CC[C@H]21 54.6%, CSCC(=O)Nc1ccc2n(c1=O)C[C@H]1C[C@@H]2CN(C(=O)c2ccc(-c3ccccc3)cc2)C1 -0.0534%, CN1CCCN(C(=O)C2(Oc3ccc4ncccc4c3)CCNCC2)CC1 40.1%, O=C(c1ccccc1Cl)N1CCC2(CC1)Cc1ccccc1NC2=O 0.724%, NC(=O)Cc1c[nH]c2ncc(-c3cccc(F)c3)cc12 7.55% [at 76.7 µM], C[C@H]1[C@@H]2[C@H]3OC(=O)[C@@H](C)[C@@H]3CC[C@@]2(C)CC[C@@H]1NC(=O)Cc1ccccc1 1.19% [at 57.5 µM]
